Test results published in PubChem BioAssay AID488969 (Vanderbilt High Throughput Screening Facility, 2010).
Over roughly 110,000 compounds, “z-score” has its median near -0.1; the highest 2% begin near 2. This is one part of the list. Calls of active or inactive are those of the source.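 How the source made its calls: active means z-score in the third read window above 3 or below -3; inactive means the rest.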

These molecules were tested against Metabotropic glutamate receptor 8 (Rattus norvegicus) (UniProt P70579) (assay: mGluR8 Gi/Go-coupled signaling modulation – cell-based, rat, thallium flux, HTS, primary screen (AID 488969)). Settings: HEK293 rat mGluR8, GIRK (G protein-gated inwardly rectifying potassium channel) thallium flux, FluoZin2; at 10 µM; stronger effect = higher value; submaximal glutamate (EC20) added with thallium.
Sequence of UniProt P70579 (P70579 whole entry, looked up): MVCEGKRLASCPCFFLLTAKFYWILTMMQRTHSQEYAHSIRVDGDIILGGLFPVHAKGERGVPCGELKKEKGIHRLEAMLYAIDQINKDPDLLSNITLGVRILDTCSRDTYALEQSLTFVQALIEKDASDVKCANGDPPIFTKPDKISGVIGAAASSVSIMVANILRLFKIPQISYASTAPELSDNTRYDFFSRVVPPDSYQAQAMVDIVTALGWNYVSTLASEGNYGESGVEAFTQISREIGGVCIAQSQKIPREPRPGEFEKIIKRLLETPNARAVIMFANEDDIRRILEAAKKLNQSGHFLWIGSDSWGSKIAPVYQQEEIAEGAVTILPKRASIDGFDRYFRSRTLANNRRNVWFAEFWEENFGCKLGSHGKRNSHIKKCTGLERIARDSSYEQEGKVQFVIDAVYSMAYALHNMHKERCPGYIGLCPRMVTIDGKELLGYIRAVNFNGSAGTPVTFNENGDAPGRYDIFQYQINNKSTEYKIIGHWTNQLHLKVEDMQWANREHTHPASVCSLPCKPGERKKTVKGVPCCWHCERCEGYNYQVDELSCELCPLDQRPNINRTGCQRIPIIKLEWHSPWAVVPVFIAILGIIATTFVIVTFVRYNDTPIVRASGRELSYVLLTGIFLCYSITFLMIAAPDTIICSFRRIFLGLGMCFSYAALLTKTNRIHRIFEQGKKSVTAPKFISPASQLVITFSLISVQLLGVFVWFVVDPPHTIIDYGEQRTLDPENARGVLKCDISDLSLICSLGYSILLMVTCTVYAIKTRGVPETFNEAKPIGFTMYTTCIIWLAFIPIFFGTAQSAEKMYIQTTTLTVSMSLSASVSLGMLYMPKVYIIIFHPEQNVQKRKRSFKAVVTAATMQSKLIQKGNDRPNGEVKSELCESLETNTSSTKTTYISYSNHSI
`COc1c(C)cccc1C(=O)NC(=S)Nc1ccc2c(c1)Cc1ccccc1-2` showed a z-score of -0.0787. With `O=C(Cn1ncc2c(=O)oc3ccccc3c21)NCC1CCCO1` (configuration not stated) the z-score was -0.106. `O=C(Nc1cc(Cl)cc(Cl)c1)C(NCCO)c1ccccc1` (configuration not stated) showed a z-score of 0.0494. `O=C(NC(=S)Nc1ccc(N2CCOCC2)c(Cl)c1)c1sc2ccccc2c1Cl` showed a z-score of 0.295. `COc1ccc(OC)c(-c2cc(C(=O)Nc3cccc(Cl)c3)no2)c1` was tested, and the z-score was 0.191. Molecule `O=C(N/N=C/c1ccccc1)c1[nH]c2ccc(Br)cc2c1-c1ccccc1` has a z-score of -0.741. With `O=C(NC(NC(=O)c1ccccc1)C(=O)c1ccccc1)c1ccccc1` the z-score was -0.143. For `Cc1ccc(SCC(=O)NC(=O)NCc2ccco2)c(C)c1`, the z-score was -0.129. For `Cc1cc(NC(=O)Nc2ccccc2)n(-c2ccccc2)n1`, the z-score was active: 10.5. With `O=C(c1ccc(Br)cc1)c1cc(-c2ccccn2)c(N2CCOCC2)s1` the z-score was -0.353. `Cc1ccc(OCC(=O)Nc2ccc(S(=O)(=O)N3CCN(C)CC3)cc2)cc1` was tested, and the z-score was -0.0465. `Cc1ccc2c(c1)C(c1ccccc1)N(C(=O)C(C)C)CC(=O)N2` (configuration not stated) gave a z-score of -0.0998. Molecule `COc1cccc(C2=NOC(C(=O)N3CCc4ccccc4C3)C2)c1` (configuration not stated) has a z-score of -0.112. Work on `CC(=O)C(Sc1ccc2nnc(-c3ccc(F)cc3)n2n1)C(C)=O` yielded a z-score of -2.82. `CCc1cc(C(c2ccccn2)N2CCN(C)CC2)c(NC(=O)c2ccccc2)s1` (configuration not stated) gave a z-score of 0.162. For `CS(=O)(=O)N(CC(=O)N1CCCCCC1)c1ccccc1`, the z-score was 0.048. Molecule `COc1ccc(NC(=O)CN2CCC3(O)CCCCC3C2c2cc(OC)ccc2OC)cc1` (configuration not stated) has a z-score of -0.103. `O=C(OCCOCCN=C1NS(=O)(=O)c2ccccc21)C1CC(=O)N(c2ccccc2)C1` (configuration not stated) gave a z-score of -0.914. Work on `CCNc1nc(NC(C)C)nc(OCCOC(=O)Nc2ccccc2)n1` yielded a z-score of -0.666. Molecule `O=C1CN2C(=Nc3ccc(Br)cc3C2c2ccccc2)CCN1` (configuration not stated) has a z-score of 0.574. `CCCCCCc1nc2ccccc2c(=O)n1NC(=O)c1c(O)c2c(n(CC(C)C)c1=O)CCCC2` was tested, and the z-score was 0.0619. `O=C(CSc1nc2ccccc2s1)NNC(=S)Nc1ccccc1` was tested, and the z-score was 0.75. `Clc1cc(Br)ccc1OCCCNCc1ccccc1` gave a z-score of 1.69. `CNC(=O)c1ccc(-c2sc3nc(N4CCOCC4)c4c(c3c2N)CC(C)(C)OC4)o1` was tested, and the z-score was -0.879. For `C=CCOc1c(CNn2nnnc2N)cccc1OC`, the z-score was -1.28. With `N#C/C(=C/Nc1ccccc1)c1ccsc1` the z-score was 0.2. Molecule `O=C(COC(=O)Cc1ccsc1)NC(c1ccccc1)c1ccccc1` has a z-score of -0.486. In the case of `COC(=O)c1nnc(-c2ccccc2)c(-c2ccccc2)n1`, the z-score is reported as 0.163. With `COCc1[nH]nc2c1C(c1ccccc1Cl)C(C#N)=C(N)O2` (configuration not stated) the z-score was -1.13. In the case of `Cc1ccc(C(=O)Cn2c(C(=O)/C=C/c3ccccc3)nc3ccccc32)cc1`, the z-score is reported as 0.0797. In the case of `Cc1ccc(S(=O)(=O)c2c(C)nn(C(C)(C)C)c2OC(=O)C2CCCC2)cc1`, the z-score is reported as -0.0263. `CCCCC1CC(/C(C)=N/NC(N)=O)OC1=O` (configuration not stated) showed a z-score of -0.458. Molecule `CCOC(=O)C1CCN(c2c(N3CCCC(C(=O)OCC)C3)c(=O)c2=O)CC1` (configuration not stated) has a z-score of 0.103. `COC(=O)C(Oc1ccc2c(-c3ccc(OC)cc3)cc(=O)oc2c1)c1ccccc1` (configuration not stated) showed a z-score of -0.279. With `CCOc1ccc(OCC)c(NC(=O)C2CCCN2S(=O)(=O)c2cccc3cccnc23)c1` (configuration not stated) the z-score was -0.928. With `Cc1ccnc(N(C(=O)c2cccs2)C(=O)c2cccs2)c1` the z-score was -0.0449. `C=CCn1c(=O)/c(=C/c2ccc(O)cc2)s/c1=C(/C#N)c1nnc2n1CCCCC2` was tested, and the z-score was -1.58. `Cc1cnn(CCC(=O)NNC(=S)Nc2cccc(Cl)c2)c1` gave a z-score of -0.0279. `O=C(Nc1ccc(Oc2cccnc2)cc1)c1ccccc1Cl` showed a z-score of -0.172. Work on `CC(=O)Nc1ccc(C(=O)n2cnc3cc(C)c(C)cc32)cc1` yielded a z-score of 0.0266. Molecule `CCCCn1c(=O)n(CC(O)c2ccccc2)c(=O)c2c1ncn2C1CCCC1` (configuration not stated) has a z-score of -0.34. For `Cc1cc(C)nc(SCC(=O)N/N=C/C=C/c2ccccc2)n1`, the z-score was 0.0171. In the case of `O=C(CSc1ncnc2c1nnn2-c1ccc(F)cc1)NCc1ccco1`, the z-score is reported as 0.0451. In the case of `COc1c(C)cccc1C(=O)Nc1cc(Cl)ccc1N1CCOCC1`, the z-score is reported as -0.0675. In the case of `Cc1ccc(S(=O)(=O)N2CCN(S(C)(=O)=O)C2c2ccccc2)cc1` (configuration not stated), the z-score is reported as -0.283. In the case of `CC(C)C12CN3CC(C(C)C)(CN(C1)C31C(=O)Nc3ccccc31)C2=O` (configuration not stated), the z-score is reported as 0.558. In the case of `O=C(Oc1cccc(-c2cnc3ccccc3n2)c1)c1ccco1`, the z-score is reported as -0.29. `O=C(c1cc(-c2cccnc2)nc2ccccc12)N1CCCc2ccccc21` was tested, and the z-score was -1.04. `O=C(O)CCNS(=O)(=O)c1ccc(Oc2ccccc2)cc1` gave a z-score of -0.113. `Cc1cccc(OCC(=O)NC(C)C(=O)N/N=C/c2c(OCc3ccccc3)ccc3ccccc23)c1` (configuration not stated) was tested, and the z-score was -0.18. `CCOC(=O)CSc1ncnc2c1cnn2-c1ccc(C)cc1` gave a z-score of 0.395. Work on `c1cc(CNc2ccc(N3CCOCC3)cc2)ccn1` yielded a z-score of -0.3. With `Cc1ccc(-n2nc(C)c3c2OC(N)=C(C#N)C3c2ccccc2F)cc1` (configuration not stated) the z-score was 0.0632. `OC1CCN(C(=S)NCCc2ccccc2)CC1` showed a z-score of -0.692. In the case of `COC(=O)c1ccccc1NC(=O)/C=C/c1cc(OC)c(OC)c(OC)c1`, the z-score is reported as -0.105. `CC(CN1CCOCC1)C(=O)c1ccccc1` (configuration not stated) showed a z-score of -0.0294. `Cc1ccc(N2CC(C(=O)N3CCN(c4ccccc4)CC3)CC2=O)cc1` (configuration not stated) was tested, and the z-score was -0.11. Molecule `CCCC(CCC(=O)Nc1ccc(S(N)(=O)=O)cc1)C(=O)O` (configuration not stated) has a z-score of 0.0428. In the case of `COc1ccc(CN(C(C)=O)c2cccc(C)c2C)cc1`, the z-score is reported as -0.144. For `O=C1CSC(c2ccccc2F)N1c1ccccc1` (configuration not stated), the z-score was 0.00473. Work on `Cc1cc(NC(=O)CSCC(=O)N(c2cccc(Cl)c2)C(C(=O)NC2CCCCC2)c2ccc(O)c(O)c2)no1` (configuration not stated) yielded a z-score of -0.0665. `Cc1cc2occ(CC(=O)NC3CCCc4ccccc43)c2cc1C` (configuration not stated) showed a z-score of 0.0042. In the case of `O=C(Cn1ncc2c1-c1ccccc1OC2)Nc1ccc(S(=O)(=O)N2CCCCC2)cc1`, the z-score is reported as 0.0325. In the case of `COc1ccc(S(=O)(=O)N(C)CC(=O)Nc2ccccc2C(F)(F)F)cc1Cl`, the z-score is reported as 0.0193. In the case of `COC(=O)c1ccccc1NC(=O)c1sc(=S)n(C)c1N`, the z-score is reported as 0.0466. `COc1cccc(/C=N/Nc2ncnc(Cl)c2N)c1O` was tested, and the z-score was -0.0315. Molecule `N#Cc1cc2c(nc1SCC(=O)Nc1sc3c(c1C#N)CCC3)CCCCCC2` has a z-score of -0.0358. `CCOC(=O)c1nnc(-c2ccc(C)cc2)nc1Oc1ccc(Cl)cc1Cl` showed a z-score of 0.061. Work on `CCC1(C)N(O)C(C)(C)C(c2ccc(F)cc2)=[N+]1[O-]` (configuration not stated) yielded a z-score of -0.195. Molecule `Cc1cc(=O)[nH]c(N=N/C(=N/Nc2ccccc2C)c2ccccc2)n1` has a z-score of -0.0508. In the case of `CCSc1nc(-c2cccnc2)ccc1C#N`, the z-score is reported as -0.504. Molecule `COc1ccc(CCN2C(=O)CC(NNC(=O)c3ccccc3Br)C2=O)cc1OC` (configuration not stated) has a z-score of -0.0544. With `Clc1ccccc1CSc1nncn1NC/C=C/c1ccccc1` the z-score was -0.186. With `CN1CC[n+]2cnc3ccccc3c21` the z-score was 0.206. Work on `N#Cc1cc2c(nc1SCc1nc3ccccc3[nH]1)CCC2` yielded a z-score of 0.426. In the case of `Nc1ccc(Oc2ccc([N+](=O)[O-])cc2[N+](=O)[O-])cc1`, the z-score is reported as -0.416. `Cc1nn(-c2ccc(Cl)cc2)c(Cl)c1/C=C(\C#N)C(N)=O` showed a z-score of -0.0578. `O=C(Nc1cccc(Cl)c1)Nc1ccc(Cl)cn1` was tested, and the z-score was 0.563. `CCN(C(=O)COc1ccccc1)c1nnc(-c2cccnc2)s1` showed a z-score of -0.182. Work on `Cc1cc(C(=O)NCc2ccc(C(=O)O)o2)c(C)o1` yielded a z-score of -0.0605. For `Cc1cc(C=O)c(C)n1-c1ccc(N2CCCCC2)c([N+](=O)[O-])c1`, the z-score was -0.468. With `C/C(=N\N1CCN(c2ccc(Cl)cc2)CC1)c1cccs1` the z-score was -0.204. Molecule `CCOC(=O)Cc1nnc(NC(=O)CSc2ccc(C)cc2)s1` has a z-score of -0.277. Work on `CN(C)c1nc(-c2ccccn2)nnc1-c1ccccc1` yielded a z-score of 0.482. `O=C(NC12CC3CC(CC(C3)C1)C2)N1CCCC(CO)C1` (configuration not stated) was tested, and the z-score was -0.045. `COC(=O)C1=C(C)NC(C)=C(C(=O)OC)C1/C=C/c1ccccc1` showed a z-score of -0.188. `O=C(Cn1cc([N+](=O)[O-])cn1)N1CCc2ccccc21` was tested, and the z-score was 0.0712. Work on `CC(C)C(c1nnnn1C1CCCCC1)N1CCc2ccccc2C1` (configuration not stated) yielded a z-score of -0.536. Molecule `CN1CCN(CC(=O)NC2CCCCC2)CC1` has a z-score of -0.239. `N#CC1=C(C=Nc2ccccc2O)CCC1` showed a z-score of -0.0637. `COc1ccc(OCc2nnc(SCC(=O)N3c4ccccc4Sc4ccc(Cl)cc43)o2)cc1` showed a z-score of -0.0274. `CC1Cc2nc(SCC(=O)N3CCN(c4ccccc4)CC3)n(CCc3ccccc3)c(=O)c2S1` (configuration not stated) gave a z-score of -1.13. `CCc1ccc(-c2cc(C(F)(F)F)n3nc(C(=O)Nc4c(C)nn(Cc5ccc(F)cc5)c4C)cc3n2)s1` gave a z-score of -0.262. Work on `CCOC(=O)c1c(C)n(C)c2ccc(OCC(O)Cn3nc(C)cc3C)cc12` (configuration not stated) yielded a z-score of -0.498. With `Cc1onc(-c2ccccc2)c1-c1nc2ccccc2c(=O)o1` the z-score was active: -3.37. `COc1ccc(-c2nnc(SCC(=O)Nc3ccc(Cl)cc3)n2C)cc1` gave a z-score of -0.405. With `CCc1ccc2c(c1)[C@]1(C(=O)N2)[C@@H]2C(=O)N(Cc3ccccc3)C(=O)[C@@H]2[C@@H]2CCCN21` the z-score was 0.369. `Cc1ccc(C(C(=O)NC2CCCC2)N2CCc3ccccc32)cc1` (configuration not stated) was tested, and the z-score was 1.23. `Cc1cccc(-c2nnc3n2N=C(c2ccccc2Br)CS3)c1` gave a z-score of -1.31. With `O=C(O)C1CCC(=O)N1Cc1ccc(F)cc1` (configuration not stated) the z-score was -0.162. With `COc1ccc(Oc2nccc(-c3ccc(F)cc3)c2C#N)cc1` the z-score was 0.0229. In the case of `COc1ccc(-c2noc(CN(C)S(=O)(=O)c3ccccc3)n2)cc1OC`, the z-score is reported as 0.388. Molecule `CCOc1ccc(NC(=O)c2ccc3nccnc3c2)cc1` has a z-score of -0.221. `O=S(=O)(Nc1nc2c(s1)CCCC2)c1ccc(Br)cc1` gave a z-score of 0.621. `COc1ccc(OC)c(S(=O)(=O)NCCO)c1` showed a z-score of -0.171. For `Cc1coc2c(C)c3oc(=O)c4c(c3cc12)CCC4`, the z-score was -0.0995. For `O=c1c2ccccc2nc(SCc2ccc([N+](=O)[O-])cc2)n1-c1ccc(Cl)cc1`, the z-score was 0.0194. With `CCC(Sc1nc2cc3c(cc2c(=O)n1Cc1ccco1)OCO3)C(=O)Nc1cccc(OC)c1` (configuration not stated) the z-score was 0.651. `CNC(=O)c1ccccc1F` gave a z-score of -0.304. `CCc1nccn1S(=O)(=O)c1ccc2ccc(C)cc2c1` gave a z-score of -0.0756. Molecule `C=CCSc1nc2ccccc2[nH]1` has a z-score of -0.22. For `CCOc1ccc(/C=N/Nc2nc(N3CCCC3)nc(N3CCCC3)n2)cc1OC`, the z-score was -0.93.
